These results are taken from the supplement of paper PMC11876631.

Positions count from the first letter of the chain named. Names may count otherwise. ± gives the standard deviation of the averaged measurements. Laboratory Escherichia coli strains with one amino-acid change in an essential protein, pooled on minimal glucose agar with carbenicillin or gentamicin at twice the control MIC (plus kanamycin and chloramphenicol for the plasmids), 48 h. Fold change of barcode share against drug-free plates; higher = less susceptible. Active = above 20 in both replicates (the paper's putatively resistant). '<' = one read or none on drug, '>' = one read or none on a drug-free plate. Shares are relative, so most strains fall below 1 when a few take over. Listed are strains with at least 15 reads on both drug-free plates, and hits; most hits rest on fewer reference reads. Replicate rank correlation about 0.5. Edits are read from barcodes.

The data set addresses Escherichia coli (laboratory strain). Put plainly: barcode share on antibiotic plates over drug-free plates; higher = less susceptible. The method, then:
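A pool of E. coli strains, each edited to carry one amino-acid change in an essential protein, was grown for 48 h on minimal glucose agar with or without antibiotic; strain barcodes were sequenced; mean of two replicates.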

Where [1] appears, read: antibiotic: carbenicillin, 2× MIC (3.1 µg/mL).
Setting [2] is: antibiotic: gentamicin, 2× MIC (MIC 0.45 µg/mL).

B1: ispA L51A (protein)
chain: MDFPQQLEACVKQANQALSRFIAPLPFQNTPVVETMQYGALLGGKRLRPFAVYATGHMFGVSTNTLDAPAAAVECIHAYSLIHDDLPAMDDDDLRRGLPTCHVKFGEANAILAGDALQTLAFSILSDADMPEVSDRDRISMISELASASGIAGMCGGQALDLDAEGKHVPLDALERIHRHKTGALIRAAVRLGALSAGDKGRRALPVLDKYAESIGLAFQVQDDILDVVGDTATLGKRQGADQQLGKSTYPALLGLEQARKKARDLIDDARQSLKQLAEQSLDTSALEALADYIIQRNK
Turning to B1, the “fold change of barcode share” value is 0.491 ± 0.14 under setting [1] and 1.22 ± 1.7 under setting [2].

B2: ispA L290W (protein)
chain: B1 chain with A51L, L290W
Consider B2, for which the “fold change of barcode share” value runs as follows: under setting [1], 0.436 ± 0.4; under setting [2], < 0.011.

B3: ispA I76A (protein)
chain: B1 chain with A51L, I76A
Take B3: the “fold change of barcode share” value runs as follows: under setting [1], 0.367 ± 0.099; under setting [2], 2.4 ± 3.2.

B4: ispA I76Q (protein)
chain: B1 chain with A51L, I76Q
On to B4, for which the “fold change of barcode share” value is 0.361 ± 0.039 under setting [1] and 2.87 ± 3.9 under setting [2].

B5: ispA L290Q (protein)
chain: B1 chain with A51L, L290Q
On to B5, for which the “fold change of barcode share” value was 0.338 ± 0.12 under setting [1] and < 0.00856 under setting [2].

B6: ispA V52A (protein)
chain: B1 chain with A51L, V52A
With B6, the “fold change of barcode share” value under setting [1] is 0.225 ± 0.042 and the “fold change of barcode share” value under setting [2] turned out to be 0.113 ± 0.13.

B7: ispA L290A (protein)
chain: B1 chain with A51L, L290A
As for B7, the “fold change of barcode share” value reads like this: under setting [1], 0.371 ± 0.13; under setting [2], 0.0151 ± 0.014.

B8: infC M170P (protein)
chain: MKGGKRVQTARPNRINGEIRAQEVRLTGLEGEQLGIVSLREALEKAEEAGVDLVEISPNAEPPVCRIMDYGKFLYEKSKSSKEQKKKQKVIQVKEIKFRPGTDEGDYQVKLRSLIRFLEEGDKAKITLRFRGREMAHQQIGMEVLNRVKDDLQELAVVESFPTKIEGRQPIMVLAPKKKQ
Take B8: the “fold change of barcode share” value by setting is: under setting [1], 0.189 ± 0.0056; under setting [2], 0.0279 ± 0.037.
